Results: PMC12040169 (PLOS Biology, 2025)
Like-named read-outs stand apart in the source and are kept apart here. The list shows a part of the results.

Tested on: T1, C. trachomatis L2/434/Bu expressing GFP (CTL2-GFP)
T1 construct: L2/434/Bu GFP intracellular growth in HeLa cells
Parameters: species or system HeLa; C. trachomatis total inclusion area by high-content imaging, normalised to DMSO
How it was run: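 High-content images of fixed, Hoechst-stained infected cultures supply inclusion area and count (growth) plus nuclei number (viability), complementing bulk GFP/resorufin fluorescence. MIC determination is unchanged from the primary assay.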

[1] = total inclusion area; 28.5 h, 10 µM; inhibitor

Structure (SMILES) | % of control remaining [1] | % of control remaining (total inclusion area, 28.5 h, 10 µM, inhibitor)
Cc1cc(C)c2nc(-c3cccnc3)cc(C(=O)N3CCN(S(=O)(=O)c4ccc(F)cc4)CC3)c2c1 [CBK267726] | 111.422 | –
COC(=O)c1ccc(-c2cc3ccccc3o2)nc1 [CBK149228] | – | 100.735
Nc1cc2ccccc2c(-c2ccsc2)n1 [CBK085710] | 88.7011 | –
COc1ccc(C)cc1S(=O)(=O)Nc1cc(OCCN2CCOCC2)c2occc2c1 [CBK067419C] | 90.7795 | –
CCn1c(COc2c(C)cccc2C)nnc1SCC(=O)N1c2ccccc2Sc2ccccc21 [CBK268103] | 113.435 | –
COc1ncccc1C(=O)NCC(CC(=O)O)c1ccc(Cl)cc1 (centres unmarked) [CBK287264] | 97.2268 | –
COc1ccc(C2c3c(-c4cc(C)c(C)cc4O)n[nH]c3C(=O)N2Cc2cccnc2)cc1OC (centres unmarked) [CBK268846] | 96.5007 | –
Cc1nn(CC(=O)N2CCCC(C)C2)c(=O)c2cc3ccsc3n12 (centres unmarked) [CBK284041] | 101.256 | –
Nc1nc(OCc2ccc3c(c2)OCO3)cnc1/C=C/c1ccccc1 [CBK145123] | 108.058 | –
O=C(NCc1cccc(C(F)(F)F)c1)c1ccccc1-n1cccc1 [CBK149598] | 3.726 | –
Nc1cccc(Oc2ccc(C(=O)O)c(C(=O)O)c2)c1 [CBK261180] | 53.2885 | –
O=C(O)c1cccc(NS(=O)(=O)Cc2ccccc2[N+](=O)[O-])c1 [CBK038906] | 74.0929 | –
COc1cc2c(cc1OC)CN(C(=O)CSc1nnc3ccccn13)CC2 [CBK287814] | 93.1777 | –
COc1cc(C(=O)NCc2ccccn2)cc(OC)c1OC [CBK058552] | 97.3901 | –
Cc1ccccc1C(c1ncccc1C)N(C)C(=O)C1CCN(Cc2ccc(Cl)c(Cl)c2)CC1 (centres unmarked) [CBK148366] | 93.4072 | –
CCOc1ccc2[nH]c3c(c2c1)CN(C(=O)C1(C)CCCO1)CC3 (centres unmarked) [CBK282659] | 102.787 | –
CC(C)C(=O)N[C@@H](C)Cn1nc(-c2cccs2)oc1=O [CBK284335] | 67.0238 | –
Cc1nn(CC(=O)N2CCCC2)c(=O)c2cc3occc3n12 [CBK283621] | 93.7625 | –
CCC1CCCCN1Cc1c(O)ccc2c(=O)c(Oc3ccc(OC)cc3)c(C(F)(F)F)oc12 (centres unmarked) [CBK263727] | 103.147 | –
COc1ccc(OC)c(NC(=O)NCCc2c[nH]cn2)c1 [CBK269956] | 94.2637 | –
CN(C)C(=O)c1ccc(-c2ccc(OC3CCN(C(=O)CC(C)(C)c4ccccc4)CC3)nc2)cc1 [CBK155047] | 72.3057 | –
Cc1ccc(C2CC(=O)c3cnc(N)nc3C2)cc1 (centres unmarked) [CBK288166] | 119.246 | –
CN(C)CCN(C)c1cc(C(F)(F)F)nc(NCc2ccc(Cl)cc2)n1 [CBK009668] | 70.7721 | –
COc1ccc(Cl)cc1S(=O)(=O)N1CCN(Cc2ccc3c(c2)OCO3)CC1 [CBK266913] | 121.397 | –
O=S(=O)(Nc1cc(O[C@@H]2CCNC2)c2occc2c1)c1ccccc1Br [CBK200020C] | 85.9559 | –
CCn1nc(C)c(-c2cncn2CCn2nc(C)c(C)c2C)c1C [CBK281782] | 104.235 | –
COCCNc1nc2c(c(N3CCSCC3)n1)CCNCC2 [CBK307510] | 77.5968 | –

Structure (SMILES) | % of control remaining [1] | % of control remaining (total inclusion area, 28.5 h, 10 µM, inhibitor)
O=c1c2c3c(sc2nc(SCc2cc(O)[nH]n2)n1Cc1ccco1)CCC3 [CBK268301] | 117.059 | –
CCCC/C=C/c1cnc(N)c(N[C@H](C)c2ccccc2)n1 [CBK064148] | 101.772 | –
COc1nn(C)c(CO)c1Cc1c(Cl)cccc1Cl [CBK092285T] | 103.653 | –
FC(F)(F)c1cccnc1OCCOc1ccc(Cl)cc1 [CBK116621] | 95.8647 | –
O=C(O)c1cccc(NS(=O)(=O)c2cccs2)c1 [CBK270068] | 86.7082 | –
CS(=O)(=O)Nc1ccc(CNC(=O)c2ccccc2Nc2cccc(C(F)(F)F)c2)cc1 [CBK161732] | 68.4479 | –
Clc1ccc(Cl)c(-c2ccc(CNCc3cccnc3)o2)c1 [CBK269720C] | 53.8133 | –
CCCC/C=C/c1cn2ccnc2c(NCc2cc(OC)c(OC)c(OC)c2)n1 [CBK066331] | 123.273 | –
Cc1nc(-c2ccc(CNS(=O)(=O)c3ccc(Cl)cc3)cc2)ccc1C(N)=O [CBK285643] | 106.635 | –
CCCC/C=C/c1nccnc1N[C@@H](CO)C(C)C [CBK037514] | 95.3144 | –
O=C(O)CCSC1CC(=O)N(c2ccc(F)cc2)C1=O (centres unmarked) [CBK276120] | 85.4336 | –
O=C(O)c1cc(N/N=C/c2ccc(-c3ccc(Cl)c(C(=O)O)c3)o2)ccc1Cl [CBK262483] | 96.9049 | –
O=C1Nc2cc(Cl)ccc2C2=NCCCN12 [CBK284385] | 86.9988 | –
CCN1CCCCC1CNC(=O)c1n[nH]c2c1CCC2 (centres unmarked) [CBK282207] | 90.421 | –
O=C(CCn1cc(Br)ccc1=O)NC1CCN(Cc2ccccc2)CC1 [CBK305778] | 78.9405 | –
Cc1ccc(C(C)C)c(OCC(O)CNC(C)C)c1 (centres unmarked) [CBK026604C] | 110.105 | –
Cc1cc(CC(=O)NCCc2c[nH]c3ccc(Cl)cc23)on1 [CBK159774] | 88.4442 | –
Cc1cccnc1C(NC(=O)C1CCN(CCCN2C(=O)CC3CCCCC3C2=O)CC1)c1ccc(F)cc1 (centres unmarked) [CBK147910] | 89.9511 | –
CN(C)CCN(Cc1ccncc1)Cc1ccsc1 [CBK283206] | 38.1093 | –
CCCCN(C=O)c1c(CC)nc2ccc(C(=O)Nc3ccc(Cl)c(Cl)c3)cn12 [CBK145470] | 95.4441 | –
COc1ccc(Cl)cc1CN(C)C(=O)c1cc(C(C)C)n2ncnc2n1 [CBK307331] | 91.2054 | –
CCCNc1nccnc1-c1ccc(F)c(Cl)c1 [CBK037100] | 140.764 | –
O=C(NCCCn1ccnc1)c1cccnc1-c1nc2ccccc2s1 [CBK269939] | 96.2438 | –
Cc1cc(C(=O)NC(Cc2ccncc2)C2CC(O)C2)c(C)o1 (centres unmarked) [CBK307181] | 37.1121 | –
O=C(Nc1ccccc1C(=O)N1CCCC1)c1ccccc1CCc1ccccc1 [CBK268608] | 82.2597 | –
Cc1nn(C)cc1CNC(=O)c1cc2ncc(Br)cn2n1 [CBK304336] | 74.6545 | –
CC1CCCC(C)N1C(=O)Cn1ncc2cccn2c1=O (centres unmarked) [CBK283680] | 92.0522 | –

Structure (SMILES) | % of control remaining [1] | % of control remaining (total inclusion area, 28.5 h, 10 µM, inhibitor)
Fc1ccc(Oc2nccnc2N2CCN(Cc3ccc(Cl)c(Cl)c3)CC2)cc1 [CBK083007T] | 94.0802 | –
O=C1CC2(CCN(C(=O)N3CCCC3)CC2)Oc2ccc(F)cc21 [CBK283597] | 66.5012 | –
Nc1nc(CCC(=O)N2Cc3cnn(Cc4ccc(F)cc4)c3C2)cs1 [CBK307019] | 83.9137 | –
O=C(NCCCc1ccccc1)c1cccc(S(=O)(=O)N2CCCC2)c1 [CBK305024] | 76.7684 | –
O=C(C1CC2C=CC1C21CC1)N1CCN(c2nccs2)CC1 (centres unmarked) [CBK281640] | 107.822 | –
O=C(c1ccco1)N1CCN(C(=O)C(c2ccccc2)c2ccccc2)CC1 [CBK144462] | 89.4292 | –
CC(C)CNC(=S)NNC(=O)CC(C)O (centres unmarked) [CBK266921] | 107.221 | –
Cc1ccccc1-c1ccccc1CC1(C(N)=O)CCN(C(=O)CCc2ccccc2)CC1 [CBK285725] | 101.938 | –
CC(C)N1CC[C@@H]2[C@H]1C(=O)NC[C@H](CCC(=O)NCc1ccccc1)N2C [CBK289027] | 120.336 | –
CCOC(=O)C1CCN(S(=O)(=O)c2ccc(NC(C)=O)c(Cl)c2)CC1 [CBK043748] | 96.479 | –
CN(C)CCNC(=O)c1cccc(-c2cncc(Nc3cccc(Cl)c3)n2)c1 [CBK065229] | 89.7689 | –
COc1ccc(CCNC(=O)CN2CCCCC2C)cc1 (centres unmarked) [CBK304827] | 95.487 | –
CN(C)CCN(Cc1cccs1)Cc1cc(Cl)ccc1O [CBK282847] | 65.086 | –
O=C(Cc1cc(F)cc(F)c1F)Nc1ccc2[nH]ccc2c1 [CBK159686] | 99.9126 | –
NCCC(=O)N(CCc1cc(C(F)(F)F)cc(C(F)(F)F)c1)c1ccc(Oc2ccccc2)cc1 [CBK002998T] | 52.9448 | –
CN(CC(=O)Nc1ccn(Cc2cccnc2)n1)c1ccc(C#N)cn1 [CBK306105] | 62.3359 | –
CCCS(=O)(=O)N1CCN(Cc2cc(Br)ccc2O)CC1 [CBK264165G] | 126.268 | –
COc1ccc(C(=O)CCCN2CC3CCC(NC(=O)Nc4ccc(F)c(F)c4)CC3C2)cc1 (centres unmarked) [CBK083514T] | 65.6545 | –
Cc1ccccc1-n1c(=O)cc(N2CCN(c3ccc(F)cc3)CC2)[nH]c1=O [CBK287508] | 91.9747 | –
CN1CCC(=NNC(=O)CCSc2ccc(Cl)cc2)CC1 [CBK020372] | 77.3994 | –
C[N+]1([O-])CCN(c2nccn(CCOc3cc(F)c(F)cc3F)c2=O)CC1 [CBK081593] | 82.2975 | –
CN(C)c1ccc(-n2ccn(S(=O)(=O)c3ccc4ccccc4c3)c2=O)cc1 [CBK106607] | 130.817 | –
CC(C)c1ccc(/C=C/C(=O)N[C@H]2CC[C@H](O)CC2)cc1 [CBK149644] | 103.964 | –
O=C(NC(Cc1ccccc1)C(O)c1nccs1)C1CC=CCC1 (centres unmarked) [CBK284763] | 76.0391 | –
C=C(C)CN1CCN(C(=O)C(CC)Oc2ccccc2F)CC1 (centres unmarked) [CBK282935] | 105.272 | –
O=C(c1nccs1)C1CCN(C(=O)c2ccccc2F)CC1 [CBK284174] | 64.395 | –
